Results taken from PubChem BioAssay AID624417 (National Center for Advancing Translational Sciences (NCATS), 2012).
The campaign covered roughly 410,000 compounds. About 6,400 (1.6%) were called active. The inconclusive results got no clear call from the source; some entries with a clear call stand among them for comparison. Calls follow the shape of the dose curve; as a rule, active = well fitted inhibition curve with a large enough effect; inconclusive = small, poorly fitted or top-dose-only effect; inactive = no such curve, though single readings can be large or run the other way. Potencies of inconclusive entries are left out as doubtful fits.

Target: Glucagon-like peptide 1 receptor (Homo sapiens) (UniProt P43220)
Sequence of UniProt P43220 (P43220 whole entry, looked up): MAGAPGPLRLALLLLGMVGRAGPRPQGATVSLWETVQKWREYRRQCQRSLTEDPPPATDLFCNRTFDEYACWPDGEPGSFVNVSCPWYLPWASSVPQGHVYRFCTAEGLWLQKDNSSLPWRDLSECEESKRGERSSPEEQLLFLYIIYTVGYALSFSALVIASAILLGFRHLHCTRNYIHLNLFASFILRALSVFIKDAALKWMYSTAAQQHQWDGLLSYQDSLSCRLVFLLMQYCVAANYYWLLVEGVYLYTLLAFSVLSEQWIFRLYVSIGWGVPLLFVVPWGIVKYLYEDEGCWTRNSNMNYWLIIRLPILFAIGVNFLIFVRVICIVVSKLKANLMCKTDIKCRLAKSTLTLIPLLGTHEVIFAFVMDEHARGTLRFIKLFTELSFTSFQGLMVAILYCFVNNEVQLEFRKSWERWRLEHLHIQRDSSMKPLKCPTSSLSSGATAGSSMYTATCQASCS
Assay: qHTS of GLP-1 Receptor Inverse Agonists (Inhibition Mode); also: nearly all actives have a fitted effect of over 55% in size
Settings: HEK293 GLP-1R CRE-luciferase, luminescence, 24 h, GLP-1R form is constitutively active; activity change, negative = inhibition: at 38.3 µM (top of the series) unless noted
Method in brief: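 Stable HEK293 clone (constitutively active GLP-1R + cAMP-response luciferase); 200 cells/uL plated, 12 h pre-culture, compound 24 hr, 37 deg C/5% CO2; detection reagent 12 min RT; luminescence.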
% is scaled to controls: 0 for no effect and ±100 for the full control effect; potency is read from the fitted curve at half-maximal effect; tags tell the direction and shape of the fitted curve.

SMILES | activity change, negative = inhibition | Potency
CCOc1ccc(Oc2nc(NCC(C)C)nc(NC(C)(C)C)n2)nn1 | inactive: 1.57% | 
CCOC(=O)C1=NNC(C(=O)c2ccc(OC)cc2)C1c1ccccc1 (stereo unspecified) |  | inconclusive [inhibitor, partial curve, poor fit]
O=C1CC(Nc2ccc3ccccc3c2)C(=O)N1Cc1ccccc1 (stereo unspecified) |  | inconclusive [inhibitor, single point]
CCOc1ccc(NC(=O)N(c2ccccc2)c2ccccc2)cc1 |  | inconclusive [inhibitor, partial curve, poor fit]
O=C(NC(=S)NCc1ccccc1)c1ccc(Br)cc1 |  | inconclusive [inhibitor, single point]
CCC(=O)Oc1ccc(C/C(=N\O)c2ccc(O)cc2O)o1 | inactive: 88.9% | 
COc1cccc(OCC(=O)Nc2cc(Cl)ccc2Oc2ccccc2)c1 |  | inconclusive [inhibitor, partial curve, poor fit]
Cc1nnc2sc(SCC(=O)N3CCC(C)CC3)nn2c1=O | inactive: 4.2% | 
O=C(c1cc2cc(F)ccc2[nH]1)N1CCCC(Nc2ccc(F)cc2)C1 (stereo unspecified) |  | inconclusive [inhibitor, single point]
CC1=Nc2cc(C(=O)NC3CCCC3)ccc2Sc2ccc(C)cc21 |  | active: 5.01 µM
O=C(CN1CCN(c2ccccc2F)CC1)NCc1ccc(Cl)cc1 |  | inconclusive [inhibitor, partial curve, poor fit]
CCOc1ccc(S(=O)(=O)NCCC(=O)NCc2ccncc2)cc1 | inactive: 4.47% | 
Cc1ccc(S(=O)(=O)NC(=O)C2(C)CCN2C(=O)Cc2ccc(C(C)(C)C)cc2)cc1 (stereo unspecified) | inactive: -25.5% | 
COc1ccc(-c2noc(C3CCCN(C(=O)c4ccccc4C)C3)n2)cc1 (stereo unspecified) |  | inconclusive [inhibitor, partial curve, poor fit]
Cc1cc(C)n(-c2ccc(C(=O)NC(C)C)cc2)n1 | inactive: 5.48% | 
Cc1cc(/N=C/C=C2/N(C)c3ccccc3C2(C)C)n(CCC#N)n1 |  | inconclusive [inhibitor, full curve, poor fit]
O=c1c(-c2ccccc2)nc2ccccc2n1C(c1ccccc1)c1nc2ccccc2[nH]1 (stereo unspecified) |  | active: 1.58 µM
CC(C)(C)c1cc(NC(=O)Nc2ccc(Br)cc2Cl)no1 |  | inconclusive [inhibitor, partial curve, poor fit]
NC(=O)CSc1nnc(-c2ccccc2Br)n1-c1cccc(C(F)(F)F)c1 |  | inconclusive [inhibitor, partial curve, poor fit]
CC1CC(C)CN(CCCNC(=O)CN2C(=O)CSc3ccc(S(=O)(=O)N4CCCCC4)cc32)C1 (stereo unspecified) |  | inconclusive [inhibitor, partial curve]
N#Cc1c(N)nc2c(c1-c1ccc3c(c1)OCO3)CCc1ccccc1-2 |  | inconclusive [inhibitor, partial curve]
CC(NC(=O)c1cc([N+](=O)[O-])cc([N+](=O)[O-])c1)C1CC2CCC1C2 (stereo unspecified) |  | inconclusive [inhibitor, partial curve]

SMILES | activity change, negative = inhibition | Potency
CCN(CC)S(=O)(=O)c1ccc(C)c(NC(=O)COC(=O)C=C(C)C)c1 |  | inconclusive [inhibitor, full curve, poor fit]
Cc1cc(N2C(=O)C3C4C=CC(C4)C3C2=O)ccc1Br (stereo unspecified) |  | inconclusive [inhibitor, single point]
O=C1CCN(CC2CCCCC2)C=C1C(=O)c1ccccc1 | inactive: 10.8% | 
Cc1nn(Cc2ccccc2Cl)c(Cl)c1/C=C/C(=O)OCC(=O)NC1CCS(=O)(=O)C1 (stereo unspecified) |  | inconclusive [inhibitor, single point]
COCCNC(=O)c1ccc2c3n(nc2c1)-c1ccccc1CO3 | inactive: -4.99% | 
Cc1sc2c(c1C)c(=O)n(-c1cccc(C(F)(F)F)c1)c(=O)n2Cc1ccc(F)cc1 | inactive: 6.5% | 
COc1ccc(C(=O)NC(=S)N(C)C2CCCCC2)cc1Br |  | inconclusive [inhibitor, partial curve, poor fit]
Cc1ccc(-c2nc3ccc(Cl)cn3c2Nc2ccccc2C)s1 | inactive: 8.95% | 
COc1cc(CNn2cn[nH]c2=S)cc(Cl)c1OCc1ccc(F)cc1 |  | inconclusive [inhibitor, full curve, poor fit]
S=C(NCCc1ccccc1)NCc1cccc(Cl)c1 |  | inconclusive [inhibitor, single point]
O=C(O)CCn1cc(/C=C/C(=O)c2ccc(Cl)cc2)c(-c2ccc(Br)cc2)n1 |  | inconclusive [inhibitor, partial curve, poor fit]
CC(=O)C(Cc1cccc(F)c1)(Cc1cccc(F)c1)C(C)=O |  | inconclusive [inhibitor, single point]
CN(Cc1ccccc1)C(=O)CSc1nc2ccccc2n1Cc1ccccc1F | inactive: -14.9% | 
Cc1ccc(S(=O)(=O)Nc2nc3ccccc3nc2NCc2ccco2)cc1 | inactive: 0% | 
Cc1[nH]c2ccccc2c1SCc1nnc(SCc2ccc(Cl)cc2)n1C |  | inconclusive [inhibitor, partial curve, poor fit]
Cc1ccc(C2(c3ccccc3)NC(=O)N(CC(=O)NC3(C#N)CCCC3)C2=O)cc1C (stereo unspecified) |  | inconclusive [inhibitor, partial curve, poor fit]
C=CCc1ccccc1OCC(O)CN1CCN(c2ccccc2)CC1 (stereo unspecified) |  | inconclusive [inhibitor, partial curve, poor fit]
Cn1c(SCC(O)c2ccccc2)nnc1-c1ccc2ccccc2c1 (stereo unspecified) |  | inconclusive [inhibitor, single point]
CCc1nc2c(OCC(=O)c3ccc(Cl)cc3Cl)cccn2c1N(C=O)Cc1ccc(OC)cc1 |  | inconclusive [inhibitor, single point]
CCn1c(=O)n(CC)c2cc(N3CCCCC3)c(NC(=O)Nc3ccccc3C(F)(F)F)cc21 |  | inconclusive [inhibitor, single point]
CCc1ccc2nc(N(CCN(C)C)C(=O)/C=C/c3cccs3)sc2c1 |  | inconclusive [inhibitor, partial curve, poor fit]
O=S(=O)(CCOc1ccccc1)c1nc2ccccc2[nH]1 | inactive: -7.16% | 

SMILES | activity change, negative = inhibition | Potency
Nc1ccc2c(c1)C(O)c1ccc(Cl)cc1-2 (stereo unspecified) |  | inconclusive [inhibitor, partial curve, poor fit]
O=C(Oc1cccc2ccccc12)c1ccco1 | inactive: 81% | 
CN(CC(=O)Nc1cccc(F)c1)C(=O)CCCc1c[nH]c2ccccc12 |  | inconclusive [inhibitor, partial curve, poor fit]
Cc1ccc(CNC(=O)Cn2cc(S(=O)(=O)Cc3ccccc3F)c3ccccc32)cc1 |  | inconclusive [inhibitor, single point]
CC12CCC(C(=O)Nc3ccccc3-n3cccc3)(CC1=O)C2(C)C (stereo unspecified) |  | inconclusive [inhibitor, single point]
O=[N+]([O-])c1ccc(N2CCN(Cc3ccc4c(c3)OCO4)CC2)nc1 |  | inconclusive [inhibitor, single point]
O=C(Cc1csc(NC(=O)Nc2cccc(Cl)c2)n1)NCc1ccccn1 |  | inconclusive [inhibitor, partial curve, poor fit]
CC(C)Cc1ccc(CN2CCCC(NC(=O)CCN3CCOCC3)C2)cc1 (stereo unspecified) |  | inconclusive [inhibitor, single point]
O=C(NCCCNc1ccc(C(F)(F)F)cc1[N+](=O)[O-])c1ccc(F)cc1 |  | inconclusive [inhibitor, partial curve, poor fit]
COc1cccc(OCc2cc(C(=O)N3CCN(C)C(c4ccccc4)C3)no2)c1 (stereo unspecified) |  | inconclusive [inhibitor, single point]
CN(C)S(=O)(=O)c1cccc(NC(=O)CSc2nc3ccccc3n2-c2ccccc2)c1 |  | inconclusive [inhibitor, single point]
O=C(Nc1nnc(CC2=CCCCC2)s1)c1cccs1 | inactive: -29.9% | 
COc1cccc(NC(=O)CN(C)C(=O)COc2ccc3ccccc3c2)c1 |  | inconclusive [inhibitor, single point]
OC(CNC1Cc2ccccc2C1)COc1ccc(Cl)cc1 (stereo unspecified) |  | inconclusive [inhibitor, single point]
COc1ccc(OCC(O)CNC(=O)Nc2cc(C)cc(C)c2)cc1 (stereo unspecified) |  | inconclusive [inhibitor, single point]
NS(=O)(=O)c1ccc(NC(=O)c2ccc(CNS(=O)(=O)c3cc(C(F)(F)F)ccc3Cl)cc2)cc1 |  | inconclusive [inhibitor, full curve]
CCOC(=O)C(CC)(CC)C(=O)/C=C/c1cccc(Br)c1 | inactive: -9.2% | 
COc1cc(C(O)c2nc(-c3cccc(C(C)C)c3)cs2)ccc1F (stereo unspecified) |  | inconclusive [inhibitor, single point]
CCOC(=O)c1[nH]c2cc3c(cc2c1NC(=O)CN1CCC2(CC1)OCCO2)OCO3 | inactive: -6.17% | 
CCCOC(=O)CSc1nc(N2CCOCC2)c2c(c1C#N)CC(C)(C)OC2 |  | inconclusive [inhibitor, partial curve, poor fit]
Cc1ccc(C(=O)Nc2ccnc(-c3cccnc3)n2)cc1 | inactive: 16.6% | 
O=S(=O)(c1ccc(Br)cc1)c1nc(-c2cccs2)oc1SCc1ccccc1F |  | inconclusive [inhibitor, partial curve, poor fit]
